Reference: PubChem BioAssay AID1745845 (National Center for Advancing Translational Sciences (NCATS), 2022)
The whole screen tested about 360,000 compounds, of which about 2,600 (0.72%) were called active. Inconclusive means that the source gave no clear call. Such entries were picked first, then a sample of the others. Calls come from the whole dose curve; as a rule, active = well fitted inhibition curve with a large enough effect; inconclusive = small, poorly fitted or top-dose-only effect; inactive = no such curve, though single readings can be large or run the other way. Where the call is inconclusive, the potency comes from a doubtful curve fit.

Assay: Primary qHTS for Inhibitors of ATXN expression; note: nearly all actives have a fitted effect of over 55% in size
Settings: HEK-293 ATXN2-luciferase reporter, luminescence, 24 h; activity change, negative = inhibition: at 57 µM (top of the series)
Procedure, shortened: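 ATXN2-luciferase reporter cells (luciferase flanked by upstream and downstream ATXN2 gene portions) were treated 24 h at 37 °C with compounds at up to 57 uM. SteadyGlo luminescence gave expression; GF-AFC fluorescence gave viability.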
% is set by controls: 0 for no effect and ±100 for the full control effect; potency is the fitted concentration of half-maximal effect; tags give direction and shape of the fitted curve.

Potency, inconclusive:
CC(C)Cn1c(N)c(C(=O)CSc2nc3ncc(Cl)cc3[nH]2)c(=O)n(C)c1=O 12.6 µM [inhibitor, partial curve, poor fit], O=[N+]([O-])c1cccc(/C=N/Nc2nc(NCc3ccccc3)nc(N3CCOCC3)n2)c1O 16.8 µM [inhibitor, partial curve, poor fit], COc1ccc(CCn2c(C(C)C)nc3c(c(=O)c4ccccc4n3C)c2=O)cc1 12.6 µM [inhibitor, partial curve, poor fit], Cc1nc2ccccc2c(=O)n1NC(=O)/C=C/c1ccc(Br)cc1 0.844 µM [inhibitor, partial curve, poor fit], CC(C)Nc1nc(NCc2ccccc2)c2sccc2n1 44.7 µM [inhibitor, single point], CC(C)N(C)c1ncnc2c1ncn2[C@H]1CN(Cc2ccc(-c3ccccc3)cc2)C[C@@H](CO)O1 39.8 µM [inhibitor, single point], COc1ccc2nc(N=NC3=C(O)CC(C)(C)CC3=O)sc2c1 39.8 µM [inhibitor, single point], S=C(NCc1ccc(Cl)cc1Cl)NC1CCCCC1 35.5 µM [inhibitor, single point], COc1ccc(S(=O)(=O)Nc2ccccc2C(=O)NCc2cccnc2)cc1C 37.7 µM [inhibitor, partial curve, poor fit], CCOC(=O)N1c2ccc(C(F)(F)F)cc2[C@@H](N(Cc2cc(C(F)(F)F)cc(C(F)(F)F)c2)C(=O)OC)C[C@H]1CC 6.11 µM [inhibitor, partial curve, poor fit], CCOc1ccc(C(=O)Nc2onc3c2CCCC3)cc1 12.6 µM [inhibitor, single point]

Potency, active:
Cc1ccc(C(=O)NCCc2cccs2)cc1 14.1 µM

Activity change, negative = inhibition, inactive:
Cc1c(Cl)cccc1NC(=O)c1cc2sccc2n1Cc1ccc(F)cc1 -18%, CCC(=O)Nc1cccc(-n2nnnc2SCC(=O)NCc2ccco2)c1 7.83%, COc1ccc(C(=O)N2CCNC(=O)C2CC(=O)Nc2cc(Cl)ccc2OC)cc1 (centres undefined) -0.626%, Cc1cccc(C)c1NC(=O)CCN1C(=O)C2C3CCC(C3)C2C1=O (centres undefined) -4.37%, Cc1cc(C)c(S(=O)(=O)NC2CC3CCC2C3)c(C)c1 (centres undefined) 20.9%, O=C(NC(=S)Nc1ncccn1)c1ccc(Cl)cc1Cl 50%, O=C(COc1ccccc1)Nc1ccc2nc(SCC(=O)N3CCc4ccccc43)sc2c1 3.83%
